# Where “and” joins values, the source holds several entries; their conditions need not be identical. Equal values may be shown once. Inconclusive results, whose numbers are uncertain, are shown with a selection of clear calls. Where the call is inconclusive, the potency comes from a doubtful curve fit. Calls of active or inactive are those of the source. Calls follow the shape of the dose curve; as a rule, active = well fitted cell-killing curve with a large enough effect; inconclusive = small, poorly fitted or top-dose-only effect; inactive = no such curve, though single readings can be large or run the other way.
# Assay: qHTS of pediatric cancer cell lines to identify multiple opportunities for drug repurposing: Primary screen for OHS-50 cells (AID 1347103); also: nearly all actives have a fitted effect of over 40% in size
# Details: OHS-50 osteosarcoma viability, CellTiter-Glo luminescence, 48 h; series mostly up to 57.3 µM
# Summary of the method: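 Cells (500-1,000/well) rested 5 h, then received compounds for 48 h; metabolically active cells were measured by CellTiter-Glo luminescence. Final concentrations spanned up to 46 µM (MIPE, 11-point) or 0.59 nM-46 µM (NPC, 8-point) in primary screens, 11-point in follow-ups.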
# Potency is read from the fitted curve at half-maximal effect; tags tell the direction and shape of the fitted curve.
row,SMILES,Potency
1,CC(CCc1ccc(O)cc1)NCCc1ccc(O)c(O)c1 (centres undefined),"inconclusive: 30.9 µM [cytotoxic, single point]"
2,Cc1cc2c(cc1C1(c3ccc(C(=O)O)cn3)CC1)C(C)(C)CCC2(C)C,"inconclusive: 38.5 µM [cytotoxic, single point]"
3,N#Cc1ccc(Oc2ccc3c(c2)COB3O)cc1,"inconclusive: 21.7 µM [cytotoxic, partial curve]"
4,COc1ccccc1N1CCN(CC(O)COc2cccc3ccccc23)CC1 (centres undefined),"inconclusive: 8.63 µM [cytotoxic, full curve] and active: 15.5 µM"
5,O=C(C1CC1)N1CC[C@@H](Cn2c(-c3ccc(-c4ccc5occc5c4)cc3)nc3cnccc32)C1,inactive
6,Clc1cc(Cl)cc(CNc2ncncc2-c2ccc3c(c2)OCO3)c1,"inconclusive: 43.2 µM [cytotoxic, single point]"
7,CCCCC(C=O)NC(=O)C(CC(C)C)NC(=O)OCc1ccccc1 (centres undefined),"inconclusive: 21.7 µM [cytotoxic, partial curve]"
8,O=C(Nc1cc(Cl)cc2c1[nH]c1cnccc12)c1cccnc1,"inconclusive: 24.3 µM [cytotoxic, partial curve]"
9,CO[C@H]1C[C@@H]2CC[C@@H](C)[C@@](O)(O2)C(=O)C(=O)N2CCCC[C@@H]2C(=O)O[C@H]([C@@H](C)C[C@@H]2CC[C@H](O)[C@H](OC)C2)CC(=O)[C@H](C)C=C(C)[C@@H](O)[C@@H](OC)C(=O)[C@H](C)C[C@H](C)C=CC=CC=C1C,"inconclusive: 48.5 µM [cytotoxic, partial curve, poor fit]"
